Test results as given in the supplement of paper PMC10369915.
The list shows a part of the results. Rule as the data show it: active = 3.2 or more and inactive = the rest. The signal is at background level for most entries.
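Also: displayed peptides selected on beads carrying the immobilized SH2 domain, with library peptides lacking any tyrosine serving as negative controls.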

Each binder was assayed against SHP2 C-SH2 domain E139D (assay: enrichment score (SH2-bound / input frequency) (ratio); bacterial display of known human phosphotyrosine sites (pTyr-Var adds point mutants) read by sequencing; higher = stronger binding; tyrosines were phosphorylated by kinases first). Conditions: peptide library: pTyr-Var.
With RHFTTYDTNGR [CLCA1_Y665_Y661H] the enrichment score was inactive: 0.823.
In the case of VVLEDYLDIKH [CLCNKB_Y138_N143H], the enrichment score is reported as inactive: 1.23.
ATHSGYRLNDF [CLDN14_Y233_YF] was tested, and the enrichment score was inactive: 1.07.
For YYHCTYKQRMI [CLEC12A_Y242_K244Q], the enrichment score was active: 3.43.
In the case of SEEVTYATLTF [CLEC12B_Y7], the enrichment score is reported as inactive: 0.88.
DFTEAYNSKIK [CLK1_Y305_P307S_YF] was tested, and the enrichment score was inactive: 0.741.
In the case of MCDSHYLESRF [CLK1_Y56_S61F], the enrichment score is reported as inactive: 0.982.
HGDDDYDDPEL [CLNK_Y69_S65G] was tested, and the enrichment score was inactive: 0.386.
DSIRDYEDGME [CLNS1A_Y214] was tested, and the enrichment score was inactive: 0.415.
In the case of EKNANYKEGTY [CLRN1_Y171_I168N], the enrichment score is reported as inactive: 0.462.
For EKIANYKEGTF [CLRN1_Y171_YF], the enrichment score was inactive: 0.845.
For TRVMEYISCLD [CLTCL1_Y1043_R1046C], the enrichment score was inactive: 1.16.
TFMKQYPKVFL [CNBD1_Y70] was tested, and the enrichment score was inactive: 0.902.
TFMKKYPKVFL [CNBD1_Y70_Q69K] was tested, and the enrichment score was inactive: 1.36.
In the case of EPGNLYIAKVE [CNTN4_Y180_T176P], the enrichment score is reported as inactive: 1.15.
For CKSIHYDLVFL [COL22A1_Y37_V35I], the enrichment score was inactive: 1.36.
With AKAEICEMRPL [COX10_Y97_Y97C] the enrichment score was inactive: 0.682.
With NYGTNYRVGSS [CPO_Y278_K273N] the enrichment score was inactive: 0.595.

These binders were tested against SHP2 C-SH2 domain wild-type in the same assay as above. Conditions: peptide library: pTyr-Var.
RHFTTYDTNGR [CLCA1_Y665_Y661H] was tested, and the enrichment score was inactive: 0.689.
In the case of VVLEDYLDIKH [CLCNKB_Y138_N143H], the enrichment score is reported as inactive: 0.874.
For ATHSGYRLNDF [CLDN14_Y233_YF], the enrichment score was inactive: 0.764.
With YYHCTYKQRMI [CLEC12A_Y242_K244Q] the enrichment score was inactive: 3.12.
For SEEVTYATLTF [CLEC12B_Y7], the enrichment score was inactive: 0.997.
In the case of DFTEAYNSKIK [CLK1_Y305_P307S_YF], the enrichment score is reported as inactive: 1.01.
In the case of MCDSHYLESRF [CLK1_Y56_S61F], the enrichment score is reported as inactive: 0.886.
For HGDDDYDDPEL [CLNK_Y69_S65G], the enrichment score was inactive: 0.364.
In the case of DSIRDYEDGME [CLNS1A_Y214], the enrichment score is reported as inactive: 0.348.
EKNANYKEGTY [CLRN1_Y171_I168N] was tested, and the enrichment score was inactive: 0.348.
For EKIANYKEGTF [CLRN1_Y171_YF], the enrichment score was inactive: 0.776.
For TRVMEYISCLD [CLTCL1_Y1043_R1046C], the enrichment score was inactive: 1.13.
TFMKQYPKVFL [CNBD1_Y70] was tested, and the enrichment score was inactive: 0.964.
With TFMKKYPKVFL [CNBD1_Y70_Q69K] the enrichment score was inactive: 1.04.
In the case of EPGNLYIAKVE [CNTN4_Y180_T176P], the enrichment score is reported as inactive: 1.07.
CKSIHYDLVFL [COL22A1_Y37_V35I] was tested, and the enrichment score was inactive: 1.51.
In the case of AKAEICEMRPL [COX10_Y97_Y97C], the enrichment score is reported as inactive: 0.577.
In the case of NYGTNYRVGSS [CPO_Y278_K273N], the enrichment score is reported as inactive: 0.559.

These binders were tested against SHP2 N-SH2 domain L43F in the same assay as above. Conditions: peptide library: pTyr-Var.
With RHFTTYDTNGR [CLCA1_Y665_Y661H] the enrichment score was inactive: 0.775.
With VVLEDYLDIKH [CLCNKB_Y138_N143H] the enrichment score was inactive: 0.972.
ATHSGYRLNDF [CLDN14_Y233_YF] was tested, and the enrichment score was inactive: 0.77.
YYHCTYKQRMI [CLEC12A_Y242_K244Q] was tested, and the enrichment score was inactive: 2.84.
For SEEVTYATLTF [CLEC12B_Y7], the enrichment score was inactive: 1.03.
With DFTEAYNSKIK [CLK1_Y305_P307S_YF] the enrichment score was inactive: 0.792.
In the case of MCDSHYLESRF [CLK1_Y56_S61F], the enrichment score is reported as inactive: 0.877.
With HGDDDYDDPEL [CLNK_Y69_S65G] the enrichment score was inactive: 0.322.
For DSIRDYEDGME [CLNS1A_Y214], the enrichment score was inactive: 0.459.
For EKNANYKEGTY [CLRN1_Y171_I168N], the enrichment score was inactive: 0.485.
In the case of EKIANYKEGTF [CLRN1_Y171_YF], the enrichment score is reported as inactive: 0.628.
TRVMEYISCLD [CLTCL1_Y1043_R1046C] was tested, and the enrichment score was inactive: 1.13.
TFMKQYPKVFL [CNBD1_Y70] was tested, and the enrichment score was inactive: 0.797.
TFMKKYPKVFL [CNBD1_Y70_Q69K] was tested, and the enrichment score was inactive: 0.977.
EPGNLYIAKVE [CNTN4_Y180_T176P] was tested, and the enrichment score was inactive: 0.915.
For CKSIHYDLVFL [COL22A1_Y37_V35I], the enrichment score was inactive: 1.12.
In the case of AKAEICEMRPL [COX10_Y97_Y97C], the enrichment score is reported as inactive: 0.613.
For NYGTNYRVGSS [CPO_Y278_K273N], the enrichment score was inactive: 0.63.

These binders were tested against SHP2 N-SH2 domain T42A in the same assay as above. Conditions: peptide library: pTyr-Var.
In the case of RHFTTYDTNGR [CLCA1_Y665_Y661H], the enrichment score is reported as inactive: 0.626.
VVLEDYLDIKH [CLCNKB_Y138_N143H] was tested, and the enrichment score was inactive: 0.577.
For ATHSGYRLNDF [CLDN14_Y233_YF], the enrichment score was inactive: 0.707.
YYHCTYKQRMI [CLEC12A_Y242_K244Q] was tested, and the enrichment score was inactive: 2.66.
With SEEVTYATLTF [CLEC12B_Y7] the enrichment score was inactive: 1.25.
For DFTEAYNSKIK [CLK1_Y305_P307S_YF], the enrichment score was inactive: 0.748.
For MCDSHYLESRF [CLK1_Y56_S61F], the enrichment score was inactive: 0.89.
For HGDDDYDDPEL [CLNK_Y69_S65G], the enrichment score was inactive: 0.44.
With DSIRDYEDGME [CLNS1A_Y214] the enrichment score was inactive: 0.365.
With EKNANYKEGTY [CLRN1_Y171_I168N] the enrichment score was inactive: 0.395.
With EKIANYKEGTF [CLRN1_Y171_YF] the enrichment score was inactive: 0.567.
With TRVMEYISCLD [CLTCL1_Y1043_R1046C] the enrichment score was inactive: 1.05.
In the case of TFMKQYPKVFL [CNBD1_Y70], the enrichment score is reported as inactive: 0.888.
For TFMKKYPKVFL [CNBD1_Y70_Q69K], the enrichment score was inactive: 1.19.
EPGNLYIAKVE [CNTN4_Y180_T176P] was tested, and the enrichment score was inactive: 0.642.
With CKSIHYDLVFL [COL22A1_Y37_V35I] the enrichment score was inactive: 1.63.
For AKAEICEMRPL [COX10_Y97_Y97C], the enrichment score was inactive: 0.68.
For NYGTNYRVGSS [CPO_Y278_K273N], the enrichment score was inactive: 0.619.

The binders below were run against SHP2 N-SH2 domain T52S in the same assay as above. Conditions: peptide library: pTyr-Var.
RHFTTYDTNGR [CLCA1_Y665_Y661H] was tested, and the enrichment score was inactive: 0.619.
VVLEDYLDIKH [CLCNKB_Y138_N143H] was tested, and the enrichment score was inactive: 0.837.
In the case of ATHSGYRLNDF [CLDN14_Y233_YF], the enrichment score is reported as inactive: 0.718.
With YYHCTYKQRMI [CLEC12A_Y242_K244Q] the enrichment score was inactive: 2.68.
With SEEVTYATLTF [CLEC12B_Y7] the enrichment score was inactive: 1.01.
In the case of DFTEAYNSKIK [CLK1_Y305_P307S_YF], the enrichment score is reported as inactive: 0.842.
For MCDSHYLESRF [CLK1_Y56_S61F], the enrichment score was inactive: 0.82.
In the case of HGDDDYDDPEL [CLNK_Y69_S65G], the enrichment score is reported as inactive: 0.389.
For DSIRDYEDGME [CLNS1A_Y214], the enrichment score was inactive: 0.413.
EKNANYKEGTY [CLRN1_Y171_I168N] was tested, and the enrichment score was inactive: 0.367.
EKIANYKEGTF [CLRN1_Y171_YF] was tested, and the enrichment score was inactive: 0.698.
For TRVMEYISCLD [CLTCL1_Y1043_R1046C], the enrichment score was inactive: 0.756.
With TFMKQYPKVFL [CNBD1_Y70] the enrichment score was inactive: 1.1.
In the case of TFMKKYPKVFL [CNBD1_Y70_Q69K], the enrichment score is reported as inactive: 1.2.
EPGNLYIAKVE [CNTN4_Y180_T176P] was tested, and the enrichment score was inactive: 0.869.
CKSIHYDLVFL [COL22A1_Y37_V35I] was tested, and the enrichment score was inactive: 1.19.
AKAEICEMRPL [COX10_Y97_Y97C] was tested, and the enrichment score was inactive: 0.623.
NYGTNYRVGSS [CPO_Y278_K273N] was tested, and the enrichment score was inactive: 0.602.

These binders were tested against SHP2 N-SH2 domain wild-type in the same assay as above. Conditions: peptide library: pTyr-Var.
With RHFTTYDTNGR [CLCA1_Y665_Y661H] the enrichment score was inactive: 0.809.
In the case of VVLEDYLDIKH [CLCNKB_Y138_N143H], the enrichment score is reported as inactive: 0.885.
In the case of ATHSGYRLNDF [CLDN14_Y233_YF], the enrichment score is reported as inactive: 0.701.
YYHCTYKQRMI [CLEC12A_Y242_K244Q] was tested, and the enrichment score was inactive: 2.84.
SEEVTYATLTF [CLEC12B_Y7] was tested, and the enrichment score was inactive: 0.999.
In the case of DFTEAYNSKIK [CLK1_Y305_P307S_YF], the enrichment score is reported as inactive: 1.09.
In the case of MCDSHYLESRF [CLK1_Y56_S61F], the enrichment score is reported as inactive: 0.928.
HGDDDYDDPEL [CLNK_Y69_S65G] was tested, and the enrichment score was inactive: 0.434.
With DSIRDYEDGME [CLNS1A_Y214] the enrichment score was inactive: 0.422.
EKNANYKEGTY [CLRN1_Y171_I168N] was tested, and the enrichment score was inactive: 0.489.
In the case of EKIANYKEGTF [CLRN1_Y171_YF], the enrichment score is reported as inactive: 0.683.
For TRVMEYISCLD [CLTCL1_Y1043_R1046C], the enrichment score was inactive: 1.19.
TFMKQYPKVFL [CNBD1_Y70] was tested, and the enrichment score was inactive: 0.804.
In the case of TFMKKYPKVFL [CNBD1_Y70_Q69K], the enrichment score is reported as inactive: 1.02.
In the case of EPGNLYIAKVE [CNTN4_Y180_T176P], the enrichment score is reported as inactive: 1.01.
In the case of CKSIHYDLVFL [COL22A1_Y37_V35I], the enrichment score is reported as inactive: 1.69.
AKAEICEMRPL [COX10_Y97_Y97C] was tested, and the enrichment score was inactive: 0.919.
In the case of NYGTNYRVGSS [CPO_Y278_K273N], the enrichment score is reported as inactive: 0.724.
